PubChem BioAssay AID1508623 (National Center for Advancing Translational Sciences (NCATS), 2021)
Out of some 48,000 compounds screened, about 450 (0.94%) were called active. Roughly 19% stayed inconclusive and do not appear here. Calls follow the shape of the dose curve; as a rule, active = well fitted inhibition curve with a large enough effect; inconclusive = small, poorly fitted or top-dose-only effect; inactive = no such curve, though single readings can be large or run the other way. This is one part of the list.

Assay: Primary qHTS for Identification of Small Molecule Inhibitors of Huntingtin Promoter Activity; also: nearly all actives have a fitted effect of over 50% in size
Settings: HEK293 HTT promoter firefly luciferase reporter (activity 0% = vehicle and -100% = no light), 24 h; series mostly up to 57.5 µM; activity change, negative = inhibition: at the top concentration
Excerpt: Assay Provider: Russell L. Margolis M.D.
Department Neurology, Johns Hopkins University School of Medicine, Baltimore, MD
Huntington's Disease (HD) is a neurodegenerative disorder caused by a CAG repeat expansion in exon 1 of huntingtin (HTT). While there are currently no disease-modifying treatments for HD, recent efforts have focused on development of nucleotide-based therapeutics to lower HTT expression. As an alternative to siRNA or oligonucleotide methods, we hypothesized that suppression of HTT expression might be accomplished by small molecules that either (1) directly decrease HTT expression by suppressing HTT promoter activity or (2) indirectly decrease HTT expression by increasing the promoter activity of HTT-AS, the gene antisense to HTT that appears to inhibit expression of HTT.
We developed and employed a high throughput screen for modifiers of HTT and HTT-AS promoter activity using luminescent reporter HEK293 cells; of the 52,041 compounds tested, we identified 898 replicable hits. We used a rigorous stepwise approach to assess compound toxicity and the capacity of the compounds to specifically lower huntingtin protein in 5 different cell lines, including HEK293 cells, HD lymphoblastoid cells, mouse primary neurons, HD iPSCs differentiated into cortical-like neurons, and HD hESCs. We found no compounds which were able to lower huntingtin without lowering cell viability in all assays, though the potential efficacy of a few compounds at non-toxic doses could not be excluded.
SEQUENCE No. (1, 2, 3, etc.); […] (e.g., Cells, Incubation, Reagent, etc.); VALUE and DESCRIPTION.
1; Reagent; 4 uL; 2,500 Hek293 luciferase reporter cells per wells
3; Compound; 23 nL; Control inhibitor / compound library
5; Reagent; 2.5 uL; Firefly Luc reagent; Dual-Glo Luciferase Reporter Assay System (Promega)
6; Time; 10 min; room temperature incubation
7; Detection; Luminescence; FLuc
NOTES (numbers refer to sequence above)
1; High-throughput screening, measuring luminescence from a Hek293 luciferase reporter, was performed in 1,536 well white-walled tissue-culture treated plates. 2,500 cells were plated in 4 µL of Opti-MEM per well using a Multidrop Combi Reagent Dispenser (ThermoFisher).
2; Assay plates were cultured for 24 hours.
3; Control inhibitor (PTC124; final concentration of 50 uM) and compound library (at final concentrations of 460 nM - 57.5 uM) were added to the assay plate using the Kalypsis Pintool Robotic System equipped with 1536 pinheads.
4; Cells were then incubated for 24 hours at 37 degrees C prior to luminescence measurements.
5; In all cases, luminescence was measured using the Dual-Glo Luciferase Reporter Assay System (Promega) following the manufacturer's instructions.
6; Room temperature incubation.
7; Luminescence signal was obtained using the PerkinElmer ViewLux plate reader. Results were normalized to vehicle control (0% activity) and zero RLU (-100% activity).

Activity change, negative = inhibition, inactive:
Cc1cccc(Cc2c(C)nc3nc(SCC(=O)NC4CCCCC4)nn3c2C)c1 -13.1%
CCOC(=O)c1nnc2c(-c3ccc(F)cc3)c(C)nn2c1N -4.02%
COc1ccccc1CNC(=O)c1cnn(-c2ccc(F)cc2F)c1C1CCN(C(=O)OC(C)(C)C)CC1 -12.3%
Cc1ccc(N2CC(NC(=O)Cc3ccc(F)cc3)CC2=O)cc1C (stereo unspecified) -24.3%
COCCN1CN=C(NS(=O)(=O)c2ccc(C)cc2)NC1 -25.3%
COc1ccc(-c2noc(CCC(=O)Nc3ccccc3Cl)n2)cc1OC -21.4%
CC1CCN(S(=O)(=O)c2ccc3nc(N4CCN(c5ccccc5F)CC4)ccc3c2)CC1 -4.16%
COc1ccc(/C=C(\C#N)c2nc(-c3cc4ccccc4oc3=O)cs2)cc1OC -5.17%
CCOc1cc(C2CC(=O)Nc3c2c(C)nn3-c2nc(C)cc(C)n2)ccc1O (stereo unspecified) -9.46%
COC(=O)c1cccnc1-n1c(=O)c2cccnc2n(CC(=O)Nc2cccc(C(F)(F)F)c2)c1=O -18.5%
COc1cc(C)ccc1OCCSc1nnc(-c2cccs2)o1 -23% [at 11.5 µM]
FC(F)(F)c1cccc(N2CCN(Cc3nnc(-c4ccccc4)o3)CC2)c1 -16.5%
O=C(/C=C/c1ccccc1)Nc1cc(-c2nc3ccccc3o2)ccc1Cl -9.01%
CCOc1ccccc1CNC(=O)c1ccc(Cn2c(=O)c3cccn3c3cccnc32)cc1 -5.33%
CCCN(CCC)CCCNC(=O)c1nn(C)c2c1CS(=O)(=O)c1ccccc1-2 -14.6%
COC(=O)CC1Oc2ccccc2-n2cc(-c3ccc(Cl)cc3)nc21 (stereo unspecified) -13.1%
Cc1ccccc1C(=O)Nc1nnc(S(=O)(=O)N2CCCCCC2)s1 -6.14%
Cc1ccc(Cl)cc1N1CCN(C(=O)C2CCN(Cc3nc(-c4cccc(Cl)c4)oc3C)CC2)CC1 -9.68%
COc1ccc(CNC(=O)Cc2csc3nc(-c4ccc(C)cc4)cn23)cc1 19.4%
O=C(NO)c1cnc(N2CCN(S(=O)(=O)c3ccc4ccccc4c3)CC2)nc1 112%
CCc1nn2c(=O)cc(COC(=O)C(c3ccccc3)c3ccccc3)nc2s1 -27.3%
CCOC(=O)c1ccc(Nc2cc(-c3ccccc3)nc(C)n2)cc1 -15%
COc1ccc(-n2nc(C(=O)NCCc3cccc(C)c3)c3c4ccccc4n(C)c3c2=O)cc1Cl -10.6%
Cc1cc(C)cc(N(CC(=O)NCc2ccccc2Cl)S(=O)(=O)c2c(C)noc2C)c1 -17.5%
CCOC(=O)Cn1c(=O)n(-c2ccccc2OC)c2nc(-c3ccccc3C)nc(C(N)=O)c21 -21%
O=C(COc1ccccc1)Nc1ccccc1C(=O)OCc1cc(=O)n2nc(C3CC3)sc2n1 -13.3%
